We go through twelve compounds from a compilation of properties of binary mixtures (doi:10.1021/je034204h).

The data set is described as follows: xn = mol fraction of the nth substance listed. To be noted: 100 kPa.

Some of these densities may be calculated back from excess volumes.

Regarding `CC1COC(=O)O1` (stereo unspecified) + C1COCCO1, the mass density worked out at 1041.4 kg/m3 (303.15 K, x1 = 0.1007); 1059.2 kg/m3 (303.15 K, x1 = 0.2012); 1094.6 kg/m3 (303.15 K, x1 = 0.4017); 1112 kg/m3 (303.15 K, x1 = 0.5017); 1129 kg/m3 (303.15 K, x1 = 0.6015); 1145.7 kg/m3 (303.15 K, x1 = 0.7018). The mass density worked out at 1162.1 kg/m3 (303.15 K, x1 = 0.8014); 1178.4 kg/m3 (303.15 K, x1 = 0.9008); 1194.5 kg/m3 (303.15 K, x1 = 1).

For the compound `C1COCCO1` + CC1COC(=O)O1, the mass density (303.15 K, x2 = 0) is recorded as 1023.3 kg/m3.

`CC(C)=O` + CC1COC(=O)O1 displayed a mass density (303.15 K, x2 = 0) of 782.4 kg/m3.

Compound `Cc1ccccc1` + CC1COC(=O)O1 displayed a mass density (303.15 K, x2 = 0) of 860.4 kg/m3.

With `Cc1ccccc1C` + CC1COC(=O)O1, the mass density is, setting by setting: (303.15 K, x2 = 0.1383) 895.4 kg/m3; (303.15 K, x2 = 0.2653) 930.2 kg/m3; (303.15 K, x2 = 0.3824) 964.7 kg/m3; (303.15 K, x2 = 0.4906) 998.9 kg/m3; (303.15 K, x2 = 0.5909) 1032.8 kg/m3; (303.15 K, x2 = 0.6842) 1066.3 kg/m3. For the same compound, the mass density reads like this: (303.15 K, x2 = 0.7712) 1099.4 kg/m3; (303.15 K, x2 = 0.9286) 1163.7 kg/m3.

`ClC(Cl)Cl` + CC1COC(=O)O1: the mass density (298.15 K, x2 = 0) turned out to be 1460.9 kg/m3; the mass density (298.15 K, x2 = 0.0961) is 1435.5 kg/m3; the mass density (298.15 K, x2 = 0.1929) is on record as 1410.5 kg/m3; the mass density (298.15 K, x2 = 0.2906) came to 1385.2 kg/m3; the mass density (298.15 K, x2 = 0.3894) is on record as 1359.6 kg/m3; the mass density (298.15 K, x2 = 0.5894) was 1306.5 kg/m3. The mass density reads like this: (298.15 K, x2 = 0.6906) 1278.4 kg/m3; (298.15 K, x2 = 0.7925) 1250.4 kg/m3; (298.15 K, x2 = 0.8962) 1222.2 kg/m3.

In turn, `c1ccccc1` + CC1COC(=O)O1 came in with a mass density (303.15 K, x2 = 0) of 865.9 kg/m3.

For `CC1COC(=O)O1` (stereo unspecified) + CC(C)=O, the mass density runs as follows: (303.15 K, x1 = 0.088) 825.4 kg/m3; (303.15 K, x1 = 0.1784) 869 kg/m3; (303.15 K, x1 = 0.2713) 912.4 kg/m3; (303.15 K, x1 = 0.3668) 955.2 kg/m3; (303.15 K, x1 = 0.4647) 997.4 kg/m3; (303.15 K, x1 = 0.5657) 1038.1 kg/m3. Moreover, the mass density runs as follows: (303.15 K, x1 = 0.6697) 1077.3 kg/m3; (303.15 K, x1 = 0.7768) 1116.5 kg/m3; (303.15 K, x1 = 0.8864) 1155.5 kg/m3; (303.15 K, x1 = 1) 1194.5 kg/m3.

For the compound `CC1COC(=O)O1` (stereo unspecified) + Cc1ccccc1, the mass density is, setting by setting: (303.15 K, x1 = 0.2385) 928.2 kg/m3; (303.15 K, x1 = 0.3493) 962.1 kg/m3; (303.15 K, x1 = 0.4553) 996 kg/m3; (303.15 K, x1 = 0.5561) 1029.5 kg/m3; (303.15 K, x1 = 0.8335) 1128.5 kg/m3; (303.15 K, x1 = 0.9188) 1161.6 kg/m3. This compound returned a mass density (303.15 K, x1 = 1) of 1194.5 kg/m3.

The compound `CC1COC(=O)O1` (stereo unspecified) + Cc1ccccc1C returned a mass density (303.15 K, x1 = 1) of 1194.5 kg/m3.

In turn, `CC1COC(=O)O1` (stereo unspecified) + ClC(Cl)Cl yielded a mass density (298.15 K, x1 = 1) of 1194.5 kg/m3.

Consider `CC1COC(=O)O1` (stereo unspecified) + c1ccccc1, for which the mass density stood at 935.9 kg/m3 (303.15 K, x1 = 0.2087); 1004.4 kg/m3 (303.15 K, x1 = 0.4131); 1037.7 kg/m3 (303.15 K, x1 = 0.5136); 1070.1 kg/m3 (303.15 K, x1 = 0.6131); 1101.8 kg/m3 (303.15 K, x1 = 0.7109); 1133 kg/m3 (303.15 K, x1 = 0.8083). In addition, the mass density (303.15 K, x1 = 1) was 1194.5 kg/m3.
